# Source: PubChem BioAssay AID504333 (National Center for Advancing Translational Sciences (NCATS), 2011)
# The campaign covered roughly 360,000 compounds. About 16,000 (4.4%) were called active. Inconclusive means that the source gave no clear call. Such entries were picked first, then a sample of the others. The call rests on the fitted dose curve; in most records, active means well fitted inhibition curve with a large enough effect; inconclusive means small, poorly fitted or top-dose-only effect; inactive means no such curve, though single readings can be large or run the other way. Potencies of inconclusive entries are doubtful fits and often do not repeat. More than one record can exist for a structure, and the calls need not agree.
# Target: Bromodomain adjacent to zinc finger domain protein 2B (Homo sapiens) (UniProt Q9UIF8)
# Assay: qHTS Assay for Inhibitors of BAZ2B; further: nearly all actives have a fitted effect of over 60% in size
# Conditions: AlphaScreen BAZ2B-H3K14Ac peptide displacement; series mostly up to 114 µM
# Summary of the method: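 Multi-concentration screen (max 110 uM) measuring displacement of acetylated histone H3 peptide from BAZ2B by AlphaScreen, using 50 nM protein, 50 nM peptide and 10 ug/mL streptavidin donor plus Ni-chelate acceptor beads.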
# Potency means the concentration at half of the fitted maximal effect; tags describe the fitted curve by direction and shape.
# Chain of UniProt Q9UIF8 (Q9UIF8 whole entry, looked up, the tested form may be a part): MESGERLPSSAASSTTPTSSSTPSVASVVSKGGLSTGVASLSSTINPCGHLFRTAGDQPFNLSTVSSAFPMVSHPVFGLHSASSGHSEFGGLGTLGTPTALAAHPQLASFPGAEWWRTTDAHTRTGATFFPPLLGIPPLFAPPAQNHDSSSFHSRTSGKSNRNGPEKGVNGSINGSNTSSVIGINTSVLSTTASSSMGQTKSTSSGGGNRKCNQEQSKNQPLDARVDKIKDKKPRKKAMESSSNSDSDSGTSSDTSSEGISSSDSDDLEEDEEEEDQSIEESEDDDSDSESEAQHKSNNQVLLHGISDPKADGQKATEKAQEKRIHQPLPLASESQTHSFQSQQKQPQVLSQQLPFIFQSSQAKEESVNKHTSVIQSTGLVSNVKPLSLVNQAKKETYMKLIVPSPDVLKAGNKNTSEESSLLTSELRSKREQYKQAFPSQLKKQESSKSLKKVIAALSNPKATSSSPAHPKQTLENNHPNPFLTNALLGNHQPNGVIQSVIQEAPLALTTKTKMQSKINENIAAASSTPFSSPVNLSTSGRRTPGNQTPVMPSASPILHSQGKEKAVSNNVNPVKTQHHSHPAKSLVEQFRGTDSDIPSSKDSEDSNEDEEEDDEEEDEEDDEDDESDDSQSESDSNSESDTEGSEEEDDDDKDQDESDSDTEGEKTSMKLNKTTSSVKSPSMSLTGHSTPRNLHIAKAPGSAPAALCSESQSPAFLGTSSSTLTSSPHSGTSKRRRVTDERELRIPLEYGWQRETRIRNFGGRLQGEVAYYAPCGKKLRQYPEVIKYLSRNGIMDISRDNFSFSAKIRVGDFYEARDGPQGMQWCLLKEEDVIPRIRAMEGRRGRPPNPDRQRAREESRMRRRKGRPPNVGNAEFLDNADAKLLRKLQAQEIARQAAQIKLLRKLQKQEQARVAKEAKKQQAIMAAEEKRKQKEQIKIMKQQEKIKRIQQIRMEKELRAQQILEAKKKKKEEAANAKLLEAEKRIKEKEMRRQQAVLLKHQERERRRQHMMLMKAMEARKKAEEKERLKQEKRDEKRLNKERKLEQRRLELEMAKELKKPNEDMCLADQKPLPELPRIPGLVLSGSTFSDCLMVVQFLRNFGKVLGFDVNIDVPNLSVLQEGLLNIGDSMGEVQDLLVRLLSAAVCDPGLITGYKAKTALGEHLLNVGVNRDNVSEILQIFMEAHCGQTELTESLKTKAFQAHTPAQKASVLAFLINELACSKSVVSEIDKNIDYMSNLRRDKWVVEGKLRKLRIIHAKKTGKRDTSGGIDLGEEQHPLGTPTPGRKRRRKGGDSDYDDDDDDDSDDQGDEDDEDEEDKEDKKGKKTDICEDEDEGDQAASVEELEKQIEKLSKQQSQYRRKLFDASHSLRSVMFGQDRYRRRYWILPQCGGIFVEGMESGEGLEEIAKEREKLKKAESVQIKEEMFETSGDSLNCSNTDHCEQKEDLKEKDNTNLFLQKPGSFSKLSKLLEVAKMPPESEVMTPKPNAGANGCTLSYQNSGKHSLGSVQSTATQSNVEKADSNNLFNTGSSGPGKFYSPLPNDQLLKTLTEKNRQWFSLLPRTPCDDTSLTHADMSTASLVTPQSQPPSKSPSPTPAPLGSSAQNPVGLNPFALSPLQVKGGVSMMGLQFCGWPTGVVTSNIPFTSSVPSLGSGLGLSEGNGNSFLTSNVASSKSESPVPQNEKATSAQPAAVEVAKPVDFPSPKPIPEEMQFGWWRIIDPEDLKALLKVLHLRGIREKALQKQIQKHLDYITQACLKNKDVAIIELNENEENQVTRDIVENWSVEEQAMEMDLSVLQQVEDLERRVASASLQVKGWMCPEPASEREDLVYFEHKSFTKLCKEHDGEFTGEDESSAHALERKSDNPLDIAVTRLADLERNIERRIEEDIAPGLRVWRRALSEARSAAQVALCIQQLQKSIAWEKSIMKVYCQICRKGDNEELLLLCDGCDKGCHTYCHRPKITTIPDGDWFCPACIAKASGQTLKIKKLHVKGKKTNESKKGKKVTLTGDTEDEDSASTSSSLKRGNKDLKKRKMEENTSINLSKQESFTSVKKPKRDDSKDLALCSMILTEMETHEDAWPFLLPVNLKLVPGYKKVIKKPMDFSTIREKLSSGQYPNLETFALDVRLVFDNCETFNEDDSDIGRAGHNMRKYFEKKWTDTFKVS
row,SMILES,Potency
1,Cc1ccc2c(c1)C(c1ccccc1)C(=O)O2 (stereo not given),inactive
2,O=C(O)C1CSC(c2ccco2)N1 (stereo not given),active: 50.1 µM
3,CCN(c1cccc(C)c1)S(=O)(=O)c1cc(CN2C(=O)c3cccnc3C2=O)ccc1OC,"inconclusive: 25.1 µM [inhibitor, partial curve]"
4,Cc1cccc(C)c1OCC(=O)N(Cc1ccc(N(C)C)cc1)C1CCS(=O)(=O)C1 (stereo not given),"inconclusive: 44.7 µM [inhibitor, partial curve]"
5,Cc1ccc(OCC(=O)N2CCN(c3ccc([N+](=O)[O-])c(N4CCOCC4)c3)CC2)cc1,"inconclusive: 50.1 µM [inhibitor, partial curve]"
6,Cc1cccc(NC(=O)CSc2nc(-c3ccccc3)cc(=O)[nH]2)c1C,inactive
7,CC(C)(C)N1NC2(CCCCC2)NC1=S,"inconclusive: 89.1 µM [inhibitor, single point]"
8,COc1ccc(N=C2SC(CC(=O)Nc3ccccc3)C(=O)N2Cc2ccccn2)cc1 (stereo not given),"inconclusive: 11.2 µM [inhibitor, partial curve, poor fit]"
9,CCOc1ccc(CCNC(=O)CN2C(=O)COc3ccc(S(=O)(=O)N4CCCC4)cc32)cc1,"inconclusive: 89.1 µM [inhibitor, single point]"
10,O/N=C/c1ccc(OCc2ccccc2F)c(Cl)c1,inactive
11,O=C(NC(=S)N1CCCCC1CO)c1cc(Br)ccc1Cl (stereo not given),inactive
12,O=C(Nc1cccc(C(F)(F)F)c1)C(Sc1n[nH]c(=O)[nH]c1=O)c1ccccc1 (stereo not given),"inconclusive: 89.1 µM [inhibitor, partial curve]"
13,CCOC(=O)/C(=C/c1ccc(Cl)cc1)NC(=O)c1ccco1,"inconclusive: 100 µM [inhibitor, single point]"
14,Cc1ccc(-c2ccccc2)n1-c1ccc(C(=O)O)cc1,"inconclusive: 44.7 µM [inhibitor, partial curve]"
15,S=C(Nc1ccc(Cl)cc1)N(CCCN1CCOCC1)Cc1ccco1,inactive
16,S=C(N/N=C/c1cccs1)NC1CC2CCC1C2 (stereo not given),"inconclusive: 39.8 µM [inhibitor, partial curve]"
17,C=CCOc1cccc(C(=O)/C=C2/C(=O)Nc3ccccc32)c1,"inconclusive: 17.8 µM [inhibitor, full curve]"
18,COCCn1c(=S)[nH]c2cc(C(=O)N3CCN(Cc4ccc5c(c4)OCO5)CC3)ccc2c1=O,inactive
19,C/C(CC(=O)Nc1ccc(N(C)C)cc1)=N\NC(=O)c1ccc(F)cc1,"inconclusive: 50.1 µM [inhibitor, partial curve]"
20,CCOc1ccc(NC(=O)CCc2c(C)nn(-c3ccc(N4CCCC4)nn3)c2C)cc1,"inconclusive: 89.1 µM [inhibitor, single point]"
21,CC(c1ccccn1)N(CCN(C)C)C(=S)Nc1cccc(F)c1 (stereo not given),"inconclusive: 79.4 µM [inhibitor, single point]"
22,COc1ccc(-c2nc(CS(=O)(=O)CC(=O)NCc3ccccc3Br)c(C)o2)cc1,inactive
23,COc1ccc(C(=O)CCN2CCN(c3ccc(OC)cc3)CC2)cc1,"inconclusive: 70.8 µM [inhibitor, single point]"

row,SMILES,Potency
1,CCOc1ccc(NC(=S)N/N=C(\C)Cc2ccc(OC)cc2)cc1,"inconclusive: 44.7 µM [inhibitor, partial curve]"
2,CC(C(=O)Nc1ccc(O)cc1)c1cccc(C(=O)c2ccccc2)c1 (stereo not given),"inconclusive: 70.8 µM [inhibitor, single point]"
3,N#CC1=C(O)C(c2ccccc2)n2c1nc(=O)c1ccccc12 (stereo not given),"inconclusive: 89.1 µM [inhibitor, single point]"
4,N[C@@H](Cc1cc(I)c(Oc2ccc(O)c(I)c2)c(I)c1)C(=O)O,active: 50.1 µM
5,NC(=O)CC(NC(=O)c1ccccc1)c1ccc(NC2CCCC2)c([N+](=O)[O-])c1 (stereo not given),inactive
6,CCOc1ccc(NC(=S)N(CCCN2CCOCC2)Cc2cn(C)c3ccccc23)cc1,"inconclusive: 39.8 µM [inhibitor, partial curve]"
7,CC(=O)c1ccccc1NC(=O)Cn1c(=O)cnc2ccccc21,inactive
8,CC(=O)Nc1cccc(N/C=C(\C=O)c2nc3ccccc3o2)c1,"inconclusive: 79.4 µM [inhibitor, single point]"
9,Brc1ccc(-c2noc(COc3ccc4c(c3)CCC4)n2)o1,active: 56.2 µM
10,COc1ccccc1NC(=O)c1ccc(-n2cccn2)c([N+](=O)[O-])c1,"inconclusive: 89.1 µM [inhibitor, single point]"
11,S=C(NCc1ccco1)N/N=C/c1ccccc1Cl,"inconclusive: 44.7 µM [inhibitor, partial curve]"
12,COc1ccc(/C=C(\C#N)C(=O)NCCCn2ccnc2)cc1,"inconclusive: 100 µM [inhibitor, single point]"
13,COc1ccc(C2CC(=O)Nc3c2c(=O)[nH]c2nc4ccccc4n32)cc1 (stereo not given),inactive
14,CCOc1cc(-c2ccc(OC(=O)c3ccccc3Cl)c(OC)c2)cc(=O)c2c(C)oc(C)c12,"inconclusive: 79.4 µM [inhibitor, single point]"
15,COCCCN1CN(S(=O)(=O)c2cccs2)c2nc3ccccc3nc21,inactive
16,CC1(c2nnc(Cc3ccccc3)o2)CC(c2cccc(F)c2)=NO1 (stereo not given),inactive
17,CCN1CCN(Cc2ccc(NC(=O)c3cc(NC(=O)N4CCNC4=O)cc(OC)c3)cc2C(F)(F)F)CC1,"inconclusive: 89.1 µM [inhibitor, single point]"
18,CCOC(=O)c1cc2occc2n1Cc1c(F)cccc1Cl,active: 50.1 µM
19,Cc1ccc(/C=N/N2CCN(C3c4ccccc4-c4ccccc43)CC2)o1,active: 35.5 µM
20,CSCCC(NC(=O)c1ccccc1)C(=O)N(C)CC(=O)Nc1ccc(N2CCOCC2)cc1 (stereo not given),"inconclusive: 79.4 µM [inhibitor, single point]"
21,Nc1nc2c(s1)CC(c1ccccc1)CC2 (stereo not given),"inconclusive: 50.1 µM [inhibitor, partial curve]"
22,Cc1ccc(S(=O)(=O)c2ccc([N+](=O)[O-])cn2)cc1,"inconclusive: 79.4 µM [inhibitor, single point]"
